In article PMC10668032:
Some of the results follow. At the low end of the ranking the order means little.

molecular target: SIX1 homeodomain (reference allele) (UniProt Q15475); assay: universal protein binding microarray; details: Universal all-10-mer PBM (8x60K, AMADID 030236), 300 nM GST-tagged protein, Alexa Fluor 488 anti-GST; buffer, salt, pH and temperature not stated; high values mean tight binding; most listed sequences are background and not binding sites; double strand, one strand shown

| Sequence | binding signal |
| --- | --- |
| ACATGAAT | 0.0158 E-score |
| ACGTTAAC | -0.18 E-score |
| CACCTGAG | -0.0042 E-score |
| AACTTCTT | -0.34 E-score |
| CACGTATC | 0.433 E-score |
| AACGCTGA | -0.263 E-score |
| ACGGATGA | 0.211 E-score |
| ACCGTAAC | -0.146 E-score |
| TTGTTAAA | -0.226 E-score |
| AAGGATAA | 0.167 E-score |
| CCCGTGAA | -0.004 E-score |
| CAGTTCGG | -0.0792 E-score |
| ATCTAGTA | 0.158 E-score |
| ACTCCACA | -0.0549 E-score |
| ATGTTCAG | -0.162 E-score |
| AATATGGA | 0.158 E-score |
| AATAGTTA | -0.171 E-score |
| AAAACAAC | -0.36 E-score |
| CCAATACG | 0.129 E-score |
| ATCTACGA | 0.149 E-score |
| CGTTATTC | -0.135 E-score |
| AACTCGCC | -0.236 E-score |
| CTAGTCAC | -0.188 E-score |
| ATCAAGTC | 0.0975 E-score |
| ACCTTCCG | 0.0213 E-score |

| Sequence | binding signal |
| --- | --- |
| CCACGTAG | -0.0535 E-score |
| CGATGCCG | 0.0279 E-score |
| CGTTCAGC | -0.249 E-score |
| TCGATGAA | -0.0545 E-score |
| CGCCAACG | -0.239 E-score |
| TATAGTGA | 0.142 E-score |
| AGATCCTC | 0.329 E-score |
| CTCGACCC | 0.189 E-score |
| AACGGCAC | -0.242 E-score |
| AGATCATC | 0.344 E-score |
| CTGGCAAG | -0.155 E-score |
| ACGTAAAA | -0.27 E-score |
| CGATCTTA | 0.197 E-score |
| TCAATACA | 0.18 E-score |
| AACTACCC | 0.0794 E-score |
| CTAATCGA | -0.132 E-score |
| AGAGTTTA | -0.216 E-score |
| AAGCACCC | -0.0301 E-score |
| GATCCGAA | 0.357 E-score |
| CGCTCGAA | -0.0589 E-score |
| AGCCGCTC | 0.00908 E-score |
| ACTCTATG | -0.159 E-score |
| AGAGGATC | 0.366 E-score |
| AAGTCCGT | -0.313 E-score |
| AAGGTTCG | -0.149 E-score |

| Sequence | binding signal |
| --- | --- |
| CTTCCCCA | -0.143 E-score |
| CGTTGCCA | -0.0877 E-score |
| ATGCTACC | -0.032 E-score |
| GCCGAGTA | -0.0783 E-score |
| ACAGAACT | -0.063 E-score |
| TAATCCTA | 0.215 E-score |
| GAAACAAA | -0.292 E-score |
| CGTATTAC | 0.26 E-score |
| GTGCGGTA | 0.116 E-score |
| AAGTACAT | 0.0292 E-score |
| CAAAAGAG | 0.00419 E-score |
| CGAGGCCA | -0.0653 E-score |
| GATGTTAA | -0.22 E-score |
| GGCGGGGA | 0.174 E-score |
| CTGTTTCC | -0.321 E-score |
| ACTAATCG | -0.0143 E-score |
| TGACCCAA | -0.181 E-score |
| CGGCAAGC | -0.14 E-score |
| ACGCGGTA | 0.123 E-score |
| GTATTGGA | 0.0534 E-score |
| GATATATA | 0.377 E-score |
| GGCTTCTA | 0.0155 E-score |
| GGTCCGCA | -0.124 E-score |
| CCGGGAGA | 0.177 E-score |
| CGGCCTAG | -0.142 E-score |

| Sequence | binding signal |
| --- | --- |
| CGAGTCAA | -0.209 E-score |
| AATACGCT | 0.124 E-score |
| CAAGCAAA | -0.171 E-score |
| CGATCAGC | 0.0997 E-score |
| CCCTGGAC | 0.0723 E-score |
| CGATAAAG | -0.219 E-score |
| CCGGTAAA | 0.157 E-score |
| AGCGCGTA | -0.0971 E-score |
| ACAAGGTA | 0.192 E-score |
| TATGTGAA | -0.0277 E-score |
| AATGGCAC | -0.25 E-score |
| GACTGGCC | -0.102 E-score |
| CGCCAACC | -0.0666 E-score |
| CACAGGTA | 0.0285 E-score |
| ACCTAGCT | 0.083 E-score |
| ATCAGCTG | 0.154 E-score |
| CAGTTCGA | 0.0323 E-score |
| AACAGTGA | -0.0614 E-score |
| AGGGAGGC | 0.0479 E-score |
| CCTTTGAC | -0.0851 E-score |
| GCTCGTCC | -0.199 E-score |
| CCTGAAAG | -0.01 E-score |
| AATCCAAG | 0.0791 E-score |
| CGGACAAG | 0.0911 E-score |
| ACGGAATA | 0.118 E-score |

| Sequence | binding signal |
| --- | --- |
| AACTGCTC | -0.0639 E-score |
| ACTCCTAC | -0.177 E-score |
| CTTGCCCC | -0.184 E-score |
| GAGGCACC | -0.218 E-score |
| ACAATCAG | -0.0388 E-score |
| CGGGTACC | 0.0525 E-score |
| CAGGGCTA | -0.0825 E-score |
| TAAGCCGA | 0.058 E-score |
| CCGCGATC | 0.354 E-score |
| CCGACACC | 0.438 E-score |
| GAAAGCCA | -0.297 E-score |
| CTATCGTC | 0.163 E-score |
| CGAGTATC | 0.435 E-score |
| GACCAATA | -0.00477 E-score |
| AATCGCCG | -0.151 E-score |
| CTATACAA | 0.0835 E-score |
| ACACGCTG | 0.0255 E-score |
| GGCCTGAC | -0.115 E-score |
| TGCTTTAA | -0.0245 E-score |
| ACGCAACG | -0.123 E-score |
| ATTATATA | 0.254 E-score |
| CCCACAGC | -0.116 E-score |
| ACAAAAGT | -0.0794 E-score |
| ATTGAAGA | -0.013 E-score |
| GTCAGGTA | 0.106 E-score |

| Sequence | binding signal |
| --- | --- |
| AAGTGTCA | 0.143 E-score |
| AAATGAAC | -0.242 E-score |
| AACCTGCA | -0.0641 E-score |
| CTACTCGC | -0.04 E-score |
| CGCTATAG | -0.085 E-score |
| GCATTTAC | -0.238 E-score |
| CGATCATC | 0.317 E-score |
| ATTCCTCG | 0.109 E-score |
| AGATGTGC | -0.146 E-score |
| AGTCACAC | -0.0139 E-score |
| ACATAAGC | -0.0678 E-score |
| ACAGTAGT | -0.0179 E-score |
| CCTCACGA | -0.0794 E-score |
| GGAAAGTA | -0.216 E-score |
| GACACTCA | 0.132 E-score |
| CCGTTATC | 0.0796 E-score |
| TAATAATA | 0.225 E-score |
| GACTTACA | -0.0781 E-score |
| CCCTATAG | 0.0903 E-score |
| GAGGTTCA | -0.0278 E-score |
| ACCAGTTA | -0.103 E-score |
| AAGGTAGT | -0.108 E-score |
| CGGCCTCA | -0.256 E-score |
| CACCAGTA | 0.0206 E-score |
| CGAAGCAC | -0.159 E-score |

| Sequence | binding signal |
| --- | --- |
| AGAGACCC | -0.0422 E-score |
| ATGGACAT | -0.0332 E-score |
| ATTCAATA | 0.161 E-score |
| TCTGATAA | 0.0127 E-score |
| CCACCAAG | -0.0218 E-score |
| ATTTCCTG | -0.0383 E-score |
| CACGCAAC | -0.166 E-score |
| AAACAAGC | -0.22 E-score |
| CCCTCCTC | 0.129 E-score |
| CGCTCATC | -0.0638 E-score |
| CAGAAGCA | -0.266 E-score |
| AGCCCTGC | 0.0108 E-score |
| GACCCGCA | 0.0115 E-score |
| GTCCAGCA | -0.233 E-score |
| CACTTCGG | -0.0299 E-score |
| ACGCTCGG | -0.105 E-score |
| TCCAAGCA | -0.0701 E-score |
| TACCTACA | 0.162 E-score |
| AACAGGAG | -0.042 E-score |
| GTAGAAAC | -0.141 E-score |
| CGATCCCA | 0.346 E-score |
| ATGCAAAG | 0.0304 E-score |
